Test results from paper PMC10120020.
These are yes or no findings as the source states them, for the method shown. Binding seen in cells or lysates may run through a third protein. Some results given as binding are weak or reduced against the parent protein; the word gives no strength.

Target: STING (Calu-1 cells) (human (endogenous in Calu-1)), Q86WV6
Assay: co-IP; STAT2-deficient Calu-1 cells restored with WT, T404A, or T404E STAT2, stimulated with 2′3′cGAMP (8 μg/mL) for 3 h
Details: remark: other sources report otherwise

B1: IRF3 (Calu-1 cells), Q14653 1-427 (protein)
chain: MGTPKPRILPWLVSQLDLGQLEGVAWVNKSRTRFRIPWKHGLRQDAQQEDFGIFQAWAEATGAYVPGRDKPDLPTWKRNFRSALNRKEGLRLAEDRSKDPHDPHKIYEFVNSGVGDFSQPDTSPDTNGGGSTSDTQEDILDELLGNMVLAPLPDPGPPSLAVAPEPCPQPLRSPSLDNPTPFPNLGPSENPLKRLLVPGEEWEFEVTAFYRGRQVFQQTISCPEGLRLVGSEVGDRTLPGWPVTLPDPGMSLTDRGVMSYVRHVLSCLGGGLALWRAGQWLWAQRLGHCHTYWAVSEELLPNSGHGPDGEVPKDKEGGVFDLGPFIVDLITFTEGSGRSPRYALWFCVGESWPQDQPWTKRLVMVKVVPTCLRALVEMARVGGASSLENTVDLHISNSHPLSLTSDQYKAYLQDLVEGMDFQGPGES
binding: binds
